Experimental data as given in PubChem BioAssay AID686978 (National Center for Advancing Translational Sciences (NCATS), 2013).
Screen size: about 420,000 compounds; about 64,000 (15%) were called active. The inconclusive results got no clear call from the source; some entries with a clear call stand among them for comparison. The call rests on the fitted dose curve; in most records, active means well fitted inhibition curve with a large enough effect; inconclusive means small, poorly fitted or top-dose-only effect; inactive means flat fitted curve, though single readings scatter. No potency is given beside an inconclusive call; the fits are too rough.

Assay: qHTS for Inhibitors of human tyrosyl-DNA phosphodiesterase 1 (TDP1): qHTS in cells in absence of CPT; further: nearly all actives have a fitted effect of over 55% in size
Details: DT40 Tdp1-/- hTDP1 cells, no CPT, ATP luminescence, 48 h; series mostly up to 46.2 µM
Method in brief: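 Compound effects on proliferation are scored in DT40 Tdp1-/-;hTDP1 cells in the absence of CPT. ATP levels (CellTiter-Glo luminescence) are recorded after a ≥48 hr, 37 °C incubation.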
Potency means the concentration at half of the fitted maximal effect; tags describe the fitted curve by direction and shape.

Compound	Potency
COc1ccc(C(=O)C(=O)N2CCC(Cc3ccccc3)CC2)cc1OC	active: 20.6 µM
COc1ccc(CNC(=O)C(CC(C)C)N2Cc3ccccc3C2=O)cc1 (stereo not given)	inconclusive [inhibitor, single point]
CCC(C)(C)n1nnnc1C(c1cc2cc(C)cc(C)c2[nH]c1=O)N1CCN(Cc2ccc3c(c2)OCO3)CC1 (stereo not given)	inconclusive [inhibitor, single point]
CCN(CC)CCOC(=O)c1ccc(Nc2c3c(nc4ccccc24)CCC3)cc1	active: 18.4 µM
Cc1ccc(NC(=O)c2cccc(S(=O)(=O)N3CCN(c4ccccc4)CC3)c2)nc1	active: 20.6 µM
CCOc1ccc(NC(=O)C2CCCN(C(=O)Nc3ccccc3)C2)cc1 (stereo not given)	inactive
Cc1ccc(C(=O)N2CCN(CCNC(=O)C(=O)Nc3ccc(Cl)cc3)CC2)cc1	inconclusive [inhibitor, single point]
CC1(C)C2CCC1(CS(=O)(=O)NCc1ccc(Cl)cc1Cl)C(=O)C2 (stereo not given)	inactive
O=C(Nc1ccc([N+](=O)[O-])cc1)N1CCc2ccccc2C1	inconclusive [inhibitor, partial curve]
CC(=O)N(C(C)=O)c1ccc2c(c1)OCCO2	inactive
Cc1cc(C)c(NC(=O)CN2CCCCCC2)c(C)c1	inactive
Cc1cc(C)n(CCNc2nc3nonc3nc2N2CCCCC2)n1	inactive
CC(CNC(=O)c1ccc(Cn2c(=O)c3cccn3c3cccnc32)cc1)c1ccccc1 (stereo not given)	inconclusive [inhibitor, single point]
Cc1onc(-c2ccccc2)c1C(=O)NCCN1Cc2ccccc2OC(c2ccsc2)C1 (stereo not given)	active: 14.6 µM
COC(=O)c1ccc(CSc2nnc(CNC(=O)COc3ccc(Cl)cc3)o2)o1	inconclusive [inhibitor, single point]
O=C1NC[C@H](Cc2ccc(O)cc2)N(C[C@@H]2CCCN2C[C@H](Cc2ccccc2)N2C[C@H](Cc3ccccc3)N(CC3CCCCC3)C(=O)C2=O)C1=O	inconclusive [inhibitor, single point]
Cc1c(C(=O)N2CCN(C(c3ccccc3)c3ccccc3)CC2)oc2ccccc12	inconclusive [inhibitor, single point]
COc1ccc(OC)c(C(=O)CSc2nccc(-c3ccc(Br)cc3)n2)c1	active: 29.1 µM
Cc1ccc(OCC(=O)NC(C)c2ccccc2)c([N+](=O)[O-])n1 (stereo not given)	inactive
O=C(Nc1ccc(N2CCCCC2)cc1)c1ccc2ccccc2n1	inconclusive [inhibitor, single point]
